Variants at the background level are over-represented here.
B1: TPR 5TU (parent)
chain: GGAUCUUCUCGAUCUAACAAAAAAGACAAAUCUGCCACAAAGCUUGAGAGCAUCUUCGGAUGCAGAGGCGGCAGCCUUCGGUGGCGCGAUAGCGCCAACGUUCUCAACUAUGACACGCAAAACGCGUGCUCCGUUGAAUGGAGUUUAUCAUG

Variants of: B1
Assay: polymerase ribozyme fitness, log enrichment relative to wild type (log ratio); higher = more active; in vitro selection for triplet polymerase activity
In short: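 Genotype fitness is the logarithm of its enrichment divided by wild-type enrichment, using inverse-variance-weighted averages of replicates. That logarithm is base 2. Enrichment was measured by Illumina sequencing of input and output libraries from one triplicate in vitro selection round, with frozen incubation at −7 °C, on PCR-built, transcribed mutant libraries of each subunit of a heterodimeric triplet polymerase ribozyme, retaining genotypes with ≥10 input reads and ≥1 read per output.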
In the case of A52G G58U, the “polymerase ribozyme fitness (log ratio)” value is reported as -0.0148. For C51A U56A C76A A121C, the “polymerase ribozyme fitness (log ratio)” value was at most -4.2. In the case of C51U G140U, the “polymerase ribozyme fitness (log ratio)” value is reported as -2.55. In the case of A52G C87G C93G C96U U111A, the “polymerase ribozyme fitness (log ratio)” value is reported as at most -4.2. For A52C C57U G133U, the “polymerase ribozyme fitness (log ratio)” value was at most -4.2. For A52C U78A A91C C108U G143A, the “polymerase ribozyme fitness (log ratio)” value was at most -4.2. In the case of A52C G58C G88U, the “polymerase ribozyme fitness (log ratio)” value is reported as at most -4.2. With C51G A60C G65C C93U U101C the “polymerase ribozyme fitness (log ratio)” value was at most -4.2. With C51A U55A A64G G83U G92A the “polymerase ribozyme fitness (log ratio)” value was at most -4.2. With A52C C57U C63A C72G U77A C85A A107U A122U G136C U148A the “polymerase ribozyme fitness (log ratio)” value was at most -4.2. For A52C C75G G88C, the “polymerase ribozyme fitness (log ratio)” value was at most -4.2. With A52G C57U U61A C87G G92A G94A C108G the “polymerase ribozyme fitness (log ratio)” value was at most -4.2. In the case of A52G C57A G58A G83U C95U, the “polymerase ribozyme fitness (log ratio)” value is reported as -0.758. In the case of C51U A52U G80C U90A U139A, the “polymerase ribozyme fitness (log ratio)” value is reported as at most -4.2. In the case of A52C C72A C85U A107G, the “polymerase ribozyme fitness (log ratio)” value is reported as at most -4.2. For C51U U53G C75U G140A G141A, the “polymerase ribozyme fitness (log ratio)” value was at most -4.2. With C51A G80C C96G A106G A110U the “polymerase ribozyme fitness (log ratio)” value was at most -4.2. With C51G U53A A60G G70U G83C A150C the “polymerase ribozyme fitness (log ratio)” value was at most -4.2. For C51U G94C U127C U135G, the “polymerase ribozyme fitness (log ratio)” value was at most -4.2. In the case of C51G C63U G88A C96U C116A, the “polymerase ribozyme fitness (log ratio)” value is reported as at most -4.2. For A52G C76A U134C G140U G141C, the “polymerase ribozyme fitness (log ratio)” value was at most -4.2. With A52C G80C C93G the “polymerase ribozyme fitness (log ratio)” value was at most -4.2. With C51G A73G C79G C87G G140C U144A the “polymerase ribozyme fitness (log ratio)” value was at most -4.2. For C51U A52C C54G U61A C75A G141C A142G, the “polymerase ribozyme fitness (log ratio)” value was at most -4.2. For C51A C118U G152A, the “polymerase ribozyme fitness (log ratio)” value was -3.06. For A52C G58U G92A C93A A150G, the “polymerase ribozyme fitness (log ratio)” value was at most -4.2. In the case of A52C U56C C57A G67A C85U A97U U146G U151G, the “polymerase ribozyme fitness (log ratio)” value is reported as at most -4.2. With A52C U53A U55G U90A C99U the “polymerase ribozyme fitness (log ratio)” value was at most -4.2. For A52C A64G C85U U145G, the “polymerase ribozyme fitness (log ratio)” value was at most -4.2. For A52C A110G A150G, the “polymerase ribozyme fitness (log ratio)” value was -3.86. With A52G G80A C87A A120G the “polymerase ribozyme fitness (log ratio)” value was at most -4.2. In the case of C51G A60G, the “polymerase ribozyme fitness (log ratio)” value is reported as -1.74. For A52G A73G C99U G117A, the “polymerase ribozyme fitness (log ratio)” value was -1.7. In the case of C51U A52C C96A U104G A106G G126C, the “polymerase ribozyme fitness (log ratio)” value is reported as at most -4.2. With C51U A64C C79A C85U A142G the “polymerase ribozyme fitness (log ratio)” value was at most -4.2. With C51U C87G A98U the “polymerase ribozyme fitness (log ratio)” value was at most -4.2. With C51G G65C U77G U102C A120G G136C U146G the “polymerase ribozyme fitness (log ratio)” value was at most -4.2. In the case of C51A C85U, the “polymerase ribozyme fitness (log ratio)” value is reported as -1.01. In the case of C51G G81C G88A, the “polymerase ribozyme fitness (log ratio)” value is reported as at most -4.2. With C51A U55A A60C G74A G81A U90G C95A the “polymerase ribozyme fitness (log ratio)” value was at most -4.2. In the case of A52C U55A U90C U102G A110G A142U, the “polymerase ribozyme fitness (log ratio)” value is reported as at most -4.2. With C51U C93G C116U G141A the “polymerase ribozyme fitness (log ratio)” value was -3.75. For C51U A91G G100A A110U A121U, the “polymerase ribozyme fitness (log ratio)” value was at most -4.2. For A52G C54A, the “polymerase ribozyme fitness (log ratio)” value was -0.998. In the case of A52C C96G, the “polymerase ribozyme fitness (log ratio)” value is reported as -1.36. For A52G C93G G141C, the “polymerase ribozyme fitness (log ratio)” value was -3.74. With A52C G84C C85G G88A the “polymerase ribozyme fitness (log ratio)” value was at most -4.2. In the case of C51A C87A C99G A115G G136C A147C, the “polymerase ribozyme fitness (log ratio)” value is reported as at most -4.2. With A52G C79U G92A C116G the “polymerase ribozyme fitness (log ratio)” value was at most -4.2. In the case of C51G U53A G83C C118U G128A, the “polymerase ribozyme fitness (log ratio)” value is reported as at most -4.2. For C51U G70U G88A G94U A106C, the “polymerase ribozyme fitness (log ratio)” value was at most -4.2. For A52G C96U A110C G133U, the “polymerase ribozyme fitness (log ratio)” value was at most -4.2. In the case of C51U G83U, the “polymerase ribozyme fitness (log ratio)” value is reported as -0.266. For A52G C93U C116U, the “polymerase ribozyme fitness (log ratio)” value was -1.48. With A52C A97U the “polymerase ribozyme fitness (log ratio)” value was -1.59. In the case of C51A U127G, the “polymerase ribozyme fitness (log ratio)” value is reported as -4.1. With A52C U55A U56A C63U A64C C85U A98G the “polymerase ribozyme fitness (log ratio)” value was at most -4.2. For A52G C57G A73U G84A, the “polymerase ribozyme fitness (log ratio)” value was -3.44. In the case of A52C A98G C132G, the “polymerase ribozyme fitness (log ratio)” value is reported as at most -4.2. In the case of A52G A66C C85A A110C, the “polymerase ribozyme fitness (log ratio)” value is reported as at most -4.2. For C51A G65A G94C C114U, the “polymerase ribozyme fitness (log ratio)” value was at most -4.2. For A52C U56A C76U U82C A107G A121U, the “polymerase ribozyme fitness (log ratio)” value was at most -4.2. In the case of A52G G83C C93U, the “polymerase ribozyme fitness (log ratio)” value is reported as -3.66. For A52G A150C, the “polymerase ribozyme fitness (log ratio)” value was -3.43. With C51G G58A C85U U111G the “polymerase ribozyme fitness (log ratio)” value was at most -4.2. With A52G C69G G92U C131G the “polymerase ribozyme fitness (log ratio)” value was at most -4.2. For C51U G71A C85U C99U G136U, the “polymerase ribozyme fitness (log ratio)” value was at most -4.2. In the case of A52C C54G G67C C85U C114A, the “polymerase ribozyme fitness (log ratio)” value is reported as at most -4.2. With C51A C57A C87U A98G U146G the “polymerase ribozyme fitness (log ratio)” value was -3.12. In the case of C51U A64C C114G A138C, the “polymerase ribozyme fitness (log ratio)” value is reported as at most -4.2. For C51A U82G C96U G143C, the “polymerase ribozyme fitness (log ratio)” value was at most -4.2. In the case of A52G A73U C96U U135A, the “polymerase ribozyme fitness (log ratio)” value is reported as at most -4.2. For C51A G94C A107U, the “polymerase ribozyme fitness (log ratio)” value was at most -4.2. For A52C G68A A97C C99U, the “polymerase ribozyme fitness (log ratio)” value was at most -4.2. In the case of A52C G58A C93U A115C U139G G141U G143U U148G, the “polymerase ribozyme fitness (log ratio)” value is reported as at most -4.2. In the case of C51A U56A G59A C76G G88A A91C G141U, the “polymerase ribozyme fitness (log ratio)” value is reported as at most -4.2. In the case of C51A G117U, the “polymerase ribozyme fitness (log ratio)” value is reported as -1.02. With C51G C54G C76G C96G C99U U146C the “polymerase ribozyme fitness (log ratio)” value was at most -4.2. For A52G G80U C93G, the “polymerase ribozyme fitness (log ratio)” value was at most -4.2. With C51U C79A C87G G143A the “polymerase ribozyme fitness (log ratio)” value was at most -4.2. With A52C C85G G92U the “polymerase ribozyme fitness (log ratio)” value was at most -4.2. In the case of C51U G65C C93U C95G A119U G141U, the “polymerase ribozyme fitness (log ratio)” value is reported as at most -4.2. In the case of C51U G71A C72A C95U A122U U130G U134A, the “polymerase ribozyme fitness (log ratio)” value is reported as at most -4.2.

Reference: the RNAGym collection of RNA variant scans (doi:10.1073/pnas.2313332121)
